The values below come from publication PMC4336329 (PLoS ONE, 2015).

Each structure is given as a SMILES string. Among all 310,000 compounds or so, about 14,000 (4.5%) showed an effect of 50% or more. The effect is printed as a negative number. This is one part of the list.
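Note: peak tail current of the secondary pulse compared with the same well before compound.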

Chain of human ether-à-go-go-related gene (hERG) potassium channel (Q12809 whole entry, looked up): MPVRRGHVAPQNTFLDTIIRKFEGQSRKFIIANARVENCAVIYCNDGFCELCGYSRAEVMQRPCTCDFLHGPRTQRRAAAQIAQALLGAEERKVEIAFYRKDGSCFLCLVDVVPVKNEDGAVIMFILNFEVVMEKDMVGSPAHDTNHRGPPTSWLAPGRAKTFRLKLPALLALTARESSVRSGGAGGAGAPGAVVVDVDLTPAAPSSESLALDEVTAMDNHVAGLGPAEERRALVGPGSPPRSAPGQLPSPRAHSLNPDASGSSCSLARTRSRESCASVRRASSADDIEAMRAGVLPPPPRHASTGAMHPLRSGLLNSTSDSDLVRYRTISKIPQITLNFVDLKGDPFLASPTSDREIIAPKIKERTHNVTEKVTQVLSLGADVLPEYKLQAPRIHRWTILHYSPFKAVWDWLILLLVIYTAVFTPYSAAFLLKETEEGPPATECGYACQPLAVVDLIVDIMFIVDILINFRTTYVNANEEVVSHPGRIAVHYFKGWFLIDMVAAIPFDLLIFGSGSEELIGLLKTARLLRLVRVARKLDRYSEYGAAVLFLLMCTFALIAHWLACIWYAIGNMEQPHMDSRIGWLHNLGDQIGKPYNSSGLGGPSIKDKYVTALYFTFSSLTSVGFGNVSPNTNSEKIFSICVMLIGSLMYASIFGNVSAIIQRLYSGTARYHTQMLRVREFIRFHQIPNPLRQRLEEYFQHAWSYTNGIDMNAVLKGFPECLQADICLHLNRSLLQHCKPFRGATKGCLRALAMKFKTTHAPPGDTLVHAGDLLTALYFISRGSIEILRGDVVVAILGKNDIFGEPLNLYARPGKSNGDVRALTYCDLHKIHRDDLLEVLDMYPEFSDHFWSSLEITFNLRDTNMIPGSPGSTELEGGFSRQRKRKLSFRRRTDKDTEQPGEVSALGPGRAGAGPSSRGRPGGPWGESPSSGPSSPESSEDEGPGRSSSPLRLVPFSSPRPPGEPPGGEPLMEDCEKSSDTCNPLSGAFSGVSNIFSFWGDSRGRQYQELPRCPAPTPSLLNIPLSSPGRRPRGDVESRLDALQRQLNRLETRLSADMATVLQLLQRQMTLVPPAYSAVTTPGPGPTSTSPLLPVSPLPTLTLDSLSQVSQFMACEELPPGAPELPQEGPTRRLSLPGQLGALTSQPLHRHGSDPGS

The assay concerns the target human ether-à-go-go-related gene (hERG) potassium channel (human, UniProt Q12809). The experiment in a line: primary screen, population patch clamp on CHO cells stably expressing hERG.
Take `CCOc1ccc(OCCOCCN2CCc3ccccc3C2)cc1`: the “hERG current change (%, negative = inhibition) at 10uM” value was -74.8%.
The figure for `CCOC(=O)NC(=O)CSc1cc(C)c2cc(C)cc(C)c2n1` is 8.47%; for `O=C(NCc1ccc2c(c1)OCO2)C1CCCCC1` it is -8.61%.
Turning to `COc1cc(/C=C2\S/C(=N/S(=O)(=O)c3ccccc3)NC2=O)c([N+](=O)[O-])cc1OC`, the “hERG current change (%, negative = inhibition) at 10uM” value is recorded as 4.25%.
In the case of `CSc1nc2sc3c(c2c2nnnn12)CCCC3`, the “hERG current change (%, negative = inhibition) at 10uM” value amounted to 7.91%.
For the molecule `CC(C)c1ccc(/C=C/C(=O)N2CCCCCC2)cc1`, the “hERG current change (%, negative = inhibition) at 10uM” value was -18%.
For the molecule `CCN1C(=O)CC(N2CCC(C(=O)OC)CC2)C1=O` (stereo not drawn), the “hERG current change (%, negative = inhibition) at 10uM” value is 9.32%.
The result for `CS(=O)(=O)N1CCN(c2ccc(NC(=O)c3cc4ccccc4o3)cc2)CC1` reads 14.8%; that for `COC(OC)c1ccnc(SCc2ccccc2Cl)n1`, 6.74%.
Regarding `O=[N+]([O-])c1ccc(N/N=C/c2ccccc2O)cc1`, the “hERG current change (%, negative = inhibition) at 10uM” value worked out at 15.8%.
The figure for `Cc1cc2ccccc2nc1SCC(=O)NC1CCCCC1` is 0.648%.
The figure for `COCCOC(=O)C1=C(C)NC2=C(C(=O)CCC2)C1c1ccc2c(c1)OCO2` (stereo not drawn) is -49.6%; for `O=c1ccnc(NCCc2ccccc2)[nH]1` it is 12.7%.
The figure for `CCOC(=O)/C(=N/Nc1ccccc1)N1CCCc2ccccc21` is 3.39%; for `O=C(Cc1ccc(Cl)cc1)Nc1ccc(-c2cc3ccccc3oc2=O)c(Cl)c1` it is -6.02%; for `CCN(CC(=O)Nc1ccc([N+](=O)[O-])cc1OC)c1ccccc1` it is -27.5%.
As to `O=C(Nc1cccc(F)c1)c1ccccc1-c1ccccc1`, the “hERG current change (%, negative = inhibition) at 10uM” value is -26.5%.
On to `CCOc1ccc(C(=O)Nc2ccc(N3CCN(S(C)(=O)=O)CC3)cc2)cc1[N+](=O)[O-]`, for which the “hERG current change (%, negative = inhibition) at 10uM” value came to 7.63%.
The figure for `CCN(CC)S(=O)(=O)c1ccc(Cl)c(C(=O)NC2CCN(Cc3ccccc3)CC2)c1.Cl` is -28.8%.
The figure for `CO/N=C/c1ccc(N2CCCC2)c([N+](=O)[O-])c1` is -1.34%.
The figure for `O=C(NCc1ccccc1)C1Cc2ccccc2CN1C(=O)c1ccco1` (stereo not drawn) is -12.2%; for `Cc1ccccc1NC(=O)c1cc(S(=O)(=O)N2CCOCC2)ccc1F` it is 3.48%.
Regarding `CC(C)OC(=O)c1c(N)n(CCCN2CCOCC2)c2nc3ccccc3nc12`, the “hERG current change (%, negative = inhibition) at 10uM” value was -20.6%.
The figure for `COc1ccc(NC(=O)CSc2ncc(-c3ccc(F)cc3)n2Cc2ccco2)cc1` is 19%; for `CC(=O)NC(CC(=O)NCCOc1ccccc1F)c1ccccc1` (stereo not drawn) it is 8.05%; for `Cc1ccc(-n2cnnn2)c2cccnc12` it is 5.19%.
The figure for `CC1(C)CC(=O)C=C(c2cccc(Br)c2)C1` is -11%; for `COc1cc(/C=N/NC(=O)c2ccncc2)ccc1O.O` it is 7.74%.
The result for `O=C(O)CCN1C(=O)NC2(CCCC2)C1=O` reads 7.84%.
As for `CN(C)S(=O)(=O)c1cccc(NC(=O)CN(CCO)CC(=O)Nc2cccc(S(=O)(=O)N(C)C)c2)c1`, the “hERG current change (%, negative = inhibition) at 10uM” value turned out to be 8.52%.
The result for `COC(=O)c1c(N)sc2c1CC(C)(C)OC2` reads 9.11%; that for `COc1ccc(C(=O)NC(C)c2cc(OC)c(OC)cc2Br)cc1` (stereo not drawn), -39.7%.
The figure for `CC(C)Oc1ccc(C(=O)O)cc1` is 16.5%.
The result for `CCSc1nnc(Nc2ccc(C)cc2)s1` reads 4.51%; that for `COc1ccccc1C(CCNCc1ccc(N(C)C)cc1)c1ccc(OC(C)C)cc1` (stereo not drawn), -73.8%; that for `C#CCNC(=O)/C=C/c1ccc(C)cc1`, 26.2%.
On to `CCCOc1cccc(C2C(C(=O)c3ccco3)=C(O)C(=O)N2CCN(CC)CC)c1` (stereo not drawn), for which the “hERG current change (%, negative = inhibition) at 10uM” value was 5.55%.
On to `O=C(CSc1nnc2n(C3CCCCC3)c(=O)c3ccccc3n12)OC1CCCCC1`, for which the “hERG current change (%, negative = inhibition) at 10uM” value was -4.92%.
With `CCCCNC(=O)c1cc(C)nc2ccccc12`, the “hERG current change (%, negative = inhibition) at 10uM” value is on record as -0.46%.
Turning to `CC(C)(C)c1ccc(C(=O)NC(=O)CSc2n[nH]c(N)n2)cc1`, the “hERG current change (%, negative = inhibition) at 10uM” value worked out at 9.1%.
Regarding `O=C(Nc1ccc(S(=O)(=O)NC2=NCCCCC2)cc1)c1ccc2ccccc2n1`, the “hERG current change (%, negative = inhibition) at 10uM” value is given as 20.7%.
The result for `O=C(CN1C(=O)c2ccccc2S1(=O)=O)Nc1ccc(S(=O)(=O)N2CCCCCC2)cc1` reads 4.32%.
`Cc1ccc(C2CC(c3ccccc3C)n3nc(N)nc3N2)cc1` (stereo not drawn): the “hERG current change (%, negative = inhibition) at 10uM” value is recorded as -14.6%.
The result for `COCCNC(=S)N/N=C(\C)CCc1ccc2c(c1)OCO2` reads -11.6%; that for `O=S(=O)(c1ccccc1)N1CCN(C(=S)NC2CCCC2)CC1`, -1.81%.
The figure for `CC1CCCC(NC(=O)c2cn(C)c3ccc(S(=O)(=O)N4CCCC4)cc3c2=O)C1C` (stereo not drawn) is -23.2%.
The figure for `O=C(CN1CCN(S(=O)(=O)c2ccc(Br)cc2)CC1)N/N=C/c1ccc(Br)s1` is -17.6%.
`Cn1ncc(N)c1C(=O)Nc1cccc(C(F)(F)F)c1`: the “hERG current change (%, negative = inhibition) at 10uM” value was 1.42%.
On to `CC1C(=O)N2CCCc3cc(NC(=O)C(=O)NCc4ccc5c(c4)OCO5)cc1c32` (stereo not drawn), for which the “hERG current change (%, negative = inhibition) at 10uM” value is -8.27%.
The figure for `CC1CCCN(C(=O)COC(=O)c2cccc(NS(=O)(=O)c3ccccc3)c2)C1` (stereo not drawn) is -15.1%; for `CCCCN(C)Cc1c(C(=O)N2CCc3ccccc3C2)nc2ccc(Cl)cn12` it is -50.1%; for `Cc1ccc2nc(SCC(=O)Nc3oc(C)c4c(C)n[nH]c(=O)c34)[nH]c2c1` it is 8.6%.
The result for `O=[N+]([O-])c1ccc(CN2CCN(c3ccc(F)cc3)CC2)o1` reads 13.6%.
The figure for `C=C(C)Cn1c(SCCCO)nc2c1c(=O)[nH]c(=O)n2C` is -4.83%; for `CCOc1ccc(CCNC(=O)Cn2c(-c3nonc3N)nc3ccccc32)cc1OCC` it is -3.72%.
With `Cc1cccc(/C(N)=N/OC(=O)COc2ccc(Cl)cc2)c1`, the “hERG current change (%, negative = inhibition) at 10uM” value is -1.01%.
For `CCC(C(=O)Nc1ccc2[nH]ncc2c1)c1ccccc1` (stereo not drawn), the “hERG current change (%, negative = inhibition) at 10uM” value is reported as 17.3%.
On to `COc1cc(/C=C/c2nc3ccccc3c(=O)[nH]2)cc(Cl)c1O`, for which the “hERG current change (%, negative = inhibition) at 10uM” value amounted to 32.2%.
As for `COc1ccc(S(=O)(=O)N2CCC(C(=O)N3CCCC3)CC2)cc1Cl`, the “hERG current change (%, negative = inhibition) at 10uM” value is given as -10.1%.
The result for `COc1cc(OC)c(C2Nc3cccc4cccc(c34)N2)c(OC)c1` reads 6.67%.
In the case of `Cc1cc(C(=O)Nc2cnc3ccccc3c2)ccc1[N+](=O)[O-]`, the “hERG current change (%, negative = inhibition) at 10uM” value is 11.9%.
Take `C/C(=C1\SC(N2CCOCC2)=NC1=O)c1ccccc1`: the “hERG current change (%, negative = inhibition) at 10uM” value was -12.5%.
The figure for `COc1cc(OC)cc(-c2nnc(NC(=O)CCS(=O)(=O)c3ccc(F)cc3)o2)c1` is 7.07%.
In the case of `Cc1cc(CN2CCCC(CO)(Cc3cccc(Cl)c3)C2)n[nH]1` (stereo not drawn), the “hERG current change (%, negative = inhibition) at 10uM” value is on record as -43.2%.
The result for `CCNc1nc(NC(C)C)nc(N(C#N)CC(=O)OC)n1` reads 0.959%.
As for `O=C(O)c1ccc(N2C(=O)c3cccc4cccc(c34)C2=O)cc1`, the “hERG current change (%, negative = inhibition) at 10uM” value is on record as 16.3%.
For the molecule `COC(=O)c1ccc2c(c1)N(C)CCS2`, the “hERG current change (%, negative = inhibition) at 10uM” value is reported as -7.05%.
The figure for `Cc1ccc(-c2cc(C(=O)NNC(=O)c3csc(N4CCOCC4)n3)c3ccccc3n2)cc1` is 15.7%; for `CC(C)c1ccc(C(=O)NC(=S)NCc2cccnc2)cc1` it is -43.3%; for `O=C(NCCCN1CCCCC1)c1ccc2c(c1)NC(=O)C(N1CCOCC1)S2` (stereo not drawn) it is -3.95%.
The result for `CCn1c2ccccc2c2cc(NC(=O)CNC)ccc21.O=C(O)C(=O)O` reads -12.8%; that for `O=C(CCCNS(=O)(=O)c1cccc2nsnc12)NCCN1CCN(c2ccccc2F)CC1`, -41.4%.
For `O=C(Nc1cccc(NC(=O)c2cccnc2)c1)c1cccnc1`, the “hERG current change (%, negative = inhibition) at 10uM” value is -3.46%.
Turning to `Cc1cc(C)nc(NC2=NC3CCCCC3N2)n1` (stereo not drawn), the “hERG current change (%, negative = inhibition) at 10uM” value was -7.62%.
Consider `Cc1cnc(C(=O)OCC(=O)NC(C)CCc2ccccc2)cn1` (stereo not drawn), for which the “hERG current change (%, negative = inhibition) at 10uM” value is listed as 6.22%.
The result for `O=C(CNc1cc(S(=O)(=O)N2CCOCC2)ccc1N1CCCC1)NCc1ccco1` reads -42.8%; that for `CC(C)CC(=O)N1CCN(Cc2ccc(Br)cc2)CC1`, -2.53%; that for `O=C(O)c1cc2nc(-c3cccs3)cc(C(F)(F)F)n2n1`, 20.1%.
On to `CCOc1ccc(N/C=C/C(=O)c2ccccc2)c([N+](=O)[O-])c1`, for which the “hERG current change (%, negative = inhibition) at 10uM” value was found to be 10.6%.
The figure for `Cc1ccccc1NC(=S)N=Nc1c(O)n(C)c2ccc(S(=O)(=O)N3CCOCC3)cc12` is -7.71%; for `Cc1ccc(NC(=O)C(C)OC(=O)c2ccc(NS(=O)(=O)c3ccc(F)c(F)c3)cc2)cc1` (stereo not drawn) it is 13.4%.
The result for `CCOC(=O)c1ccc(NC(=O)CSC2=NC(=O)C(CC)C(=O)N2)cc1` (stereo not drawn) reads 10.8%; that for `CCOC(=O)Cc1csc(N(C)C)n1`, -4.34%; that for `Cc1cccc(NC(=O)CN(C)S(=O)(=O)c2ccc(-c3ccc(=O)[nH]n3)s2)c1C`, -19.9%.
The result for `Cn1c(=O)c(=O)n(C)c2cc(S(=O)(=O)CCC(=O)NCc3ccccc3)ccc21` reads 20%; that for `O=C(COc1ccccc1)N1CCc2ccccc2C1`, 10%; that for `OCCC#Cc1ccc(CN2CCN(C3CCCCC3)C(CCO)C2)cc1` (stereo not drawn), -0.113%.
As to `CC(C)Cn1cnc2sc3c(c2c1=N)CCCC3`, the “hERG current change (%, negative = inhibition) at 10uM” value was -25.2%.
The result for `CCOC(=O)c1csc(NC(=O)c2ccc(S(=O)(=O)N(CC)CC)cc2)n1` reads -2.57%.
Consider `O=C(CSc1nnc(NC(=O)c2cccc(Cl)c2)s1)NCC1CCCO1` (stereo not drawn), for which the “hERG current change (%, negative = inhibition) at 10uM” value is reported as 20%.
